The supplement of paper PMC11880418
Counter-ions that a name gives are not always drawn. Some of the results follow. The data scatter; read single values as rough.

Assays:
Test in all cases: ALDHbr (CSC) cell proportion score relative to DMSO vehicle (ratio to DMSO); breast (SUM159) / gastric (MKN45) / pancreatic (PANC1) / colon cancer lines; ALDHbr cells have high ALDH activity and are rich in cancer stem cells (CSC); higher = more CSC (ALDHbr) cells remaining
Conditions in all cases: 10 µM; 72 h
MKN45 = system: MKN45
PANC1 = system: PANC1
SUM159 = system: SUM159
T84 = system: T84
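Note: High-content imaging of ALDEFLUOR-stained cells with Hoechst-labelled nuclei in 384-well plates, triplicate wells, scored as Z-score against 0.1% DMSO vehicle, negative meaning fewer ALDHbr cells.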

O=C1[C@H]2CCCC[C@H]2C(=O)N1CCCCN1CCN(c2nsc3ccccc23)CC1 [Perospirone]
ALDHbr (MKN45): 0.307
ALDHbr (PANC1): 0.672
ALDHbr (SUM159): 0.45
ALDHbr (T84): 0.602

OC(CCN1CCCCC1)(c1ccccc1)C1CC2C=CC1C2 (stereo unspecified) [Biperiden hydrochloride]
ALDHbr (MKN45): 1.09
ALDHbr (PANC1): 1.03
ALDHbr (SUM159): 0.913
ALDHbr (T84): 0.947

N#CC(c1ccc(Cl)cc1)c1c(Cl)cc(-n2ncc(=O)[nH]c2=O)cc1Cl (stereo unspecified) [Diclazuril]
ALDHbr (MKN45): 0.393
ALDHbr (PANC1): 0.831
ALDHbr (SUM159): 1.42
ALDHbr (T84): 1.1

Cc1ccc(O)c([C@H](CCN(C(C)C)C(C)C)c2ccccc2)c1 [Tolterodine tartrate]
ALDHbr (MKN45): 0.864
ALDHbr (PANC1): 1.03
ALDHbr (SUM159): 0.7
ALDHbr (T84): 1.14

CN1CCc2c(c3ccccc3n2Cc2ccccc2)C1 [Mebhydroline 1,5-naphtalenedisulfonate]
ALDHbr (MKN45): 1.24
ALDHbr (PANC1): 0.928
ALDHbr (SUM159): 0.702
ALDHbr (T84): 0.676

CCCCC[C@H](O)/C=C/[C@H]1[C@H](O)CC(=O)[C@@H]1CCCCCCC(=O)O [Alprostadil]
ALDHbr (MKN45): 0.862
ALDHbr (PANC1): 0.644
ALDHbr (SUM159): 1.62
ALDHbr (T84): 0.801

CC(=O)NC[C@H]1CN(c2ccc(N3CCOCC3)c(F)c2)C(=O)O1 [Linezolid]
ALDHbr (MKN45): 0.954
ALDHbr (PANC1): 0.631
ALDHbr (SUM159): 0.929
ALDHbr (T84): 0.994

CNCC[C@@H](Oc1ccccc1C)c1ccccc1 [Tomoxetine hydrochloride]
ALDHbr (MKN45): 1.08
ALDHbr (PANC1): 0.95
ALDHbr (SUM159): 1.18
ALDHbr (T84): 0.927

CC[N+](C)(C)Cc1ccccc1Br [Bretylium tosylate]
ALDHbr (MKN45): 1.12
ALDHbr (PANC1): 1.05
ALDHbr (SUM159): 0.982
ALDHbr (T84): 0.864

Clc1ccc2nsnc2c1NC1=NCCN1 [Tizanidine hydrochloride]
ALDHbr (MKN45): 1.07
ALDHbr (PANC1): 1
ALDHbr (SUM159): 1.02
ALDHbr (T84): 0.973

CCc1cc(C(N)=S)ccn1 [Ethionamide]
ALDHbr (MKN45): 1
ALDHbr (PANC1): 1.01
ALDHbr (SUM159): 1.29
ALDHbr (T84): 0.951

Cc1nnc(NS(=O)(=O)c2ccc(N)cc2)s1 [Sulfamethizole]
ALDHbr (MKN45): 0.903
ALDHbr (PANC1): 0.869
ALDHbr (SUM159): 1.11
ALDHbr (T84): 0.979

CC(=O)c1ccc2c(c1)N(CCCN(C)C)c1ccccc1S2 [Acetopromazine maleate salt]
ALDHbr (MKN45): 1.22
ALDHbr (PANC1): 0.698
ALDHbr (SUM159): 0.765
ALDHbr (T84): 0.624

O=P(O)(O)C(O)(Cn1ccnc1)P(=O)(O)O [Zoledronic acid hydrate]
ALDHbr (MKN45): 0.921
ALDHbr (PANC1): 0.97
ALDHbr (SUM159): 0.909
ALDHbr (T84): 1.05

N[C@@H](Cc1ccc(O)c(O)c1)C(=O)O [Levodopa]
ALDHbr (MKN45): 1.11
ALDHbr (PANC1): 0.8
ALDHbr (SUM159): 0.986
ALDHbr (T84): 1.02

COc1ncnc(NS(=O)(=O)c2ccc(N)cc2)c1OC [Sulfadoxine]
ALDHbr (MKN45): 1.1
ALDHbr (PANC1): 0.923
ALDHbr (SUM159): 1
ALDHbr (T84): 0.924

CN(C/C=C/c1ccccc1)Cc1cccc2ccccc12 [Naftifine hydrochloride]
ALDHbr (MKN45): 0.951
ALDHbr (PANC1): 0.953
ALDHbr (SUM159): 0.986
ALDHbr (T84): 0.834

CN(Cc1cnc2nc(N)nc(N)c2n1)c1ccc(C(=O)N[C@@H](CCC(=O)O)C(=O)O)cc1 (racemic) [Amethopterin (R,S)]
ALDHbr (MKN45): 0.134
ALDHbr (PANC1): 0.856
ALDHbr (SUM159): 0.632
ALDHbr (T84): 0.445

CNCCC(Oc1ccccc1OC)c1ccccc1 (stereo unspecified) [Nisoxetine hydrochloride]
ALDHbr (MKN45): 1.14
ALDHbr (PANC1): 0.992
ALDHbr (SUM159): 0.982
ALDHbr (T84): 0.862

COc1ccc(CC2c3cc(OC)c(OC)cc3CC[N+]2(C)CCC(=O)OCCCCCOC(=O)CC[N+]2(C)CCc3cc(OC)c(OC)cc3C2Cc2ccc(OC)c(OC)c2)cc1OC (stereo unspecified) [Atracurium besylate]
ALDHbr (MKN45): 0.43
ALDHbr (PANC1): 0.587
ALDHbr (SUM159): 0.259
ALDHbr (T84): 0.489

Cc1onc(-c2c(F)cccc2Cl)c1C(=O)N[C@@H]1C(=O)N2[C@@H]1SC(C)(C)[C@@H]2C(=O)O [Flucloxacillin sodium]
ALDHbr (MKN45): 1.33
ALDHbr (PANC1): 1.11
ALDHbr (SUM159): 0.821
ALDHbr (T84): 0.964

CC(=O)OC(C)C[N+](C)(C)C (stereo unspecified) [Methacholine chloride]
ALDHbr (MKN45): 1.05
ALDHbr (PANC1): 0.95
ALDHbr (SUM159): 1.02
ALDHbr (T84): 0.962

Nc1nc(Cl)nc2c1ncn2[C@H]1C[C@H](O)[C@@H](CO)O1 [Cladribine]
ALDHbr (MKN45): 0.243
ALDHbr (PANC1): 0.953
ALDHbr (SUM159): 0.598
ALDHbr (T84): 0.13

Clc1ccc(CCC(Cn2ccnc2)Sc2c(Cl)cccc2Cl)cc1 (stereo unspecified) [Butoconazole nitrate]
ALDHbr (MKN45): 0.513
ALDHbr (PANC1): 0.993
ALDHbr (SUM159): 1.47
ALDHbr (T84): 0.61
